Measurements from the RNAGym collection of RNA variant scans (doi:10.7554/elife.90254).
The source gives no read counts; variants with many changes may rest on few reads.

B1: LINE1-mini (parent)
chain: GGCAGAGCUCAACACAGCGUGGCAAAGUGGCUGUGGCUAGACUGCC

Variants of: B1
Assay: self-cleavage, relative activity (ratio to wild type); higher = more cleavage; in vitro, sequencing; the parent is a self-cleaving ribozyme

| Variant | self-cleavage |
| --- | --- |
| U9A C10U C23G U32A U38C | 0.13 |
| G1A A12G G33A | 0.05 |
| C15A C18A A24C A41C | 0 |
| C3U G33U U43C | 0 |
| G2A G7U A16C C23G U28A | 0.01 |
| C10U G17C C18U G40U U43G | 0.02 |
| A4C G17U C18U A41U | 0.06 |
| A4U G5U G30A G36C | 0.56 |
| G1U G2U G7U C18A C23G A25U A26C U28C G44C | 0.01 |
| C3G G22U G40C G44U | 0.02 |
| U20C U28A C37U | 0.01 |
| A6C C18A U20C C37A C46G | 0.01 |
| C3A A11C C15U U20A | 0.03 |
| G2A C8G A41C | 0.06 |
| C8G A11U A16G G21U U28C G44U | 0.01 |
| C3U G7C G22U | 0.03 |
| A12C C13A C18G | 0.02 |
| C8A A26U U34G | 0.24 |
| G5C U9G A25G G30A C31U G33A | 0.09 |
| C3G A4U G5A A6G G7A A26C C37U | 0.08 |
| G1A U32A G35U | 0.04 |
| A4G C8G C18G G30U A39C | 0.06 |
| C13G G19C U28C U38A | 0.06 |
| C3G G19A G22U A25C U32C | 0.27 |

| Variant | self-cleavage |
| --- | --- |
| G7A A14U G33U | 0.03 |
| G29C G33U G36U A39G | 0.08 |
| G22C G29A G33A | 0.38 |
| A11U A12U C31U | 0.1 |
| G29A C37G C42U | 0.09 |
| A16G C18A G36A | 0.17 |
| A16G U20G G21U A39U U43A | 0 |
| G7A G33U U43G | 0.2 |
| U9A A14G G33U U34C G36A | 0.08 |
| G5U G29U G36C | 0.1 |
| G22A C31A G40U | 0.04 |
| C13G G29U G33C U43G | 0 |
| G27U C37G G40U | 0.16 |
| C10G A14U G19A C42A | 0.01 |
| A4U G27A G36U | 0.02 |
| U9C C10U G40A | 0.05 |
| G1U A11U G36A A39G G44A | 0 |
| U20C G33U G35A | 0.23 |
| G2C A4U C18A C37G | 0.05 |
| G1C A12C C15G U34C | 0.02 |
| U9G U28C G29U G33A | 0.05 |
| C10U C15A G30C | 0.03 |
| A4U U32C G36U | 0.21 |
| C13G A25G G36U | 0.14 |

| Variant | self-cleavage |
| --- | --- |
| C3U A14G G21A C23A U38C | 0.26 |
| C10A G35U C37A | 0.01 |
| C3G C31A U38G | 0.04 |
| U9C G21C U34G G36A | 0.04 |
| G19U G22C U28C U38C | 0.37 |
| G2C C8A C15A G40U | 0.03 |
| C10G A24C U34A C46G | 0.02 |
| C3G C8G C18G C31G | 0.05 |
| G2A C3U U20C | 0.81 |
| G7C C8A C37U | 0.04 |
| G2C A11C A26G U34A | 0 |
| C3U C15A A25U | 0.11 |
| A12C C13A G30A U34G C45G | 0 |
| G1A G2A G17U G29C | 0.1 |
| A14G G30C U34A | 0.08 |
| G29U C42G G44U | 0.04 |
| C3G C15G G17C | 0.27 |
| C8U G21U C37G A39G | 0.01 |
| C8U C15A G36A | 0.26 |
| C3G C10A C13G C31U | 0.02 |
| G5U C10U G17C C23A A39U | 0.02 |
| A6C C10A C13G C18G | 0.02 |
| C15U U20C G44A | 0.02 |
| A16G C18G G40C C42U | 0.14 |

| Variant | self-cleavage |
| --- | --- |
| U9G C15U G21A G22U G44C | 0.05 |
| C13A G17C U20G C45A | 0.02 |
| C13A C37U C46G | 0.02 |
| G5C G27A U28C C42U | 0.1 |
| C3G U34C G36C U38C A39C C42G G44U | 0 |
| G5U A11G G17A A26C C37G | 0.01 |
| G5U C8A A11G A14G | 0.03 |
| G1U G2U U28A | 0.05 |
| C10G A16U A24U | 0.01 |
| G2C A11G C13A C18A G19C | 0.03 |
| G1C A12C C13G A16G G29A C37G | 0 |
| U34A G36C G40A | 0 |
| C10A C18U U28C G40U | 0.01 |
| G17U A25C A41U | 0.13 |
| C8A A11U A12C G29A G30U | 0.01 |
| C15A A26G U28A | 0.03 |
| G5U A12C A14G C31G | 0.03 |
| G1A G2U C3U U9G G17C U34A A41C | 0.19 |
| A11G G27A U28G | 0.02 |
| U20C G21U U43C | 0.03 |
| C15A A41U C45U | 0.1 |
| A25U A26G C46U | 1.22 |
| A6G A16C C18G A41U | 0.02 |
| G2U C10A G22C G33A | 0.02 |

| Variant | self-cleavage |
| --- | --- |
| C10A A12C G17A C37A | 0.02 |
| G2C C8U G17A C31A U38C | 0.07 |
| G1U C8G C10A C18U A26C | 0.02 |
| G21U C23G A39U C42U | 0.1 |
| C3A A6G C15U G21U G30A C42G C45A | 0.13 |
| G7A G22U G30C | 0.13 |
| C3U U38A C45G | 0.08 |
| G22A C23U G44U | 0.19 |
| C18A G21A C23U U43G C46U | 0.03 |
| C13G C23U G40U C45G | 0.08 |
| C8G U9A U34G | 0.21 |
| C15A G27A C37U | 0.04 |
| G2C C8U A39U | 0.06 |
| A25C U38A G44U C46A | 0.07 |
| A6U C18U A26G | 0.15 |
| C10G A11G A12G G36U | 0.02 |
| G1A C18U G19U G21C | 0.46 |
| A25G G35A G36C A41U | 0.01 |
| G1C C8G C23G G40A U43A C45U | 0.01 |
| G2A A11C A41G G44U | 0.01 |
| C31G G35U G44C | 0.04 |
| G7C C15U C23A G33C C45G | 0.03 |
| G5C U38A G40U | 0.01 |
| G1U C23A G29C | 0.08 |

| Variant | self-cleavage |
| --- | --- |
| A11G G19U G33C | 0.02 |
| G19U G33U C45A | 0.04 |
| A4C C8A C10U A14C U28C | 0.01 |
| C13A A16U G22U G40A | 0.08 |
| A6G C31A G35U C42G | 0.02 |
| G5A C13U G27A C45G | 0.2 |
| A11U C15A G44A | 0.03 |
| C15U G21U C23A A26C C31A G36A A39G | 0.06 |
| C8A C18G G19A C23A U34A G44A | 0.07 |
| A11G G21U G29C C31A | 0.02 |
| G1U C3G A16G U34G U38G G40A | 0.01 |
| G30A C31A C42A | 0.05 |
| C3G A12C C23A G36A | 1.02 |
| G36U C37U U38C | 0 |
| G22C G27U U34A | 0.21 |
| G1U U9G C31G G44U | 0.03 |
| G1C A6G C8G C13U | 0.04 |
| U9G C23A C42A C46A | 0.27 |
| U28G G30C G36A | 0.03 |
| C13G A25C U38A | 0.02 |
| C10A A26C C46A | 0.03 |
| G1C U9C U34G | 0.01 |
| G2A C18A G19U | 0.09 |
| C37G G40U C45U | 0.08 |

| Variant | self-cleavage |
| --- | --- |
| A4G G21U G35U | 0.12 |
| G5A G21A G22C A26C G33A | 0.05 |
| C8U A16C U28A C31U | 0.06 |
| G2U G21C A24G G44U | 0.05 |
| A12C G33A U43A G44A | 0.01 |
| A12U G22U A25U G30C G33A C37G | 0 |
| C8A C13G G29A C42G G44A | 0.92 |
| C3U A4G C13A C23A | 0.2 |
| G2C C15A A24U C31A | 0.01 |
| G2U G7C U20C | 0.02 |
| G5U G7A A16U G17C G40A | 0.12 |
| C31U U32C C46U | 0.03 |
| G7C A11G C18U G22U A25G G29C G30U C37A | 0.01 |
| A4G A25U U32C G40A U43C | 0.18 |
| A12C C15U C18G G27C C37A | 0.01 |
| A6U C18A G19U G22A C37G | 0.04 |
| A6U A12U G17A C18G C46A | 0.02 |
| G5U G19U G36C | 0.01 |
| G1U C10U A12U A25U | 0.03 |
| G5A U32C C46U | 0.07 |
| G5U G7U U34G | 0.13 |
| C3A A12C G27A | 0.05 |
| A4C U43A C45A | 0.04 |
